Laboratory results from paper PMC9911399, “Two distinct binding modes provide the RNA-binding protein RbFox with extraordinary sequence specificity”.
Substitutions are numbered along the chain they refer to; changes in the protein carry UniProt numbers. This is one part of the list.

T1: RBFOX1 RRM (Homo sapiens, UniProt Q9NWB1 109-208)
T1 sequence: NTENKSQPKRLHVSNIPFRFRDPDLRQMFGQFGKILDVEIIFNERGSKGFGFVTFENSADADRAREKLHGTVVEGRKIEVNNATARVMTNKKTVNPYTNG

B1: UUGUGCC (DNA:RNA)
RNA: GGGAGACCGGAAUUCAGAUUGUCCUUGUGCCUUAAAUCCCGUCGUAGCCACCA
DNA 1: CAATCTGAATTCCGGTCTCCC
DNA 2: TGGTGGCTACGACGGGATT
B2: ACCCGUA (DNA:RNA)
RNA: B1 RNA with U25A, U26C, G27C, U28C, C30U, C31A
DNA 1: CAATCTGAATTCCGGTCTCCC
DNA 2: TGGTGGCTACGACGGGATT
B3: GCUAGCU (DNA:RNA)
RNA: B1 RNA with U25G, U26C, G27U, U28A, C31U
DNA 1: CAATCTGAATTCCGGTCTCCC
DNA 2: TGGTGGCTACGACGGGATT
B4: GCAAUAC (DNA:RNA)
RNA: B1 RNA with U25G, U26C, G27A, U28A, G29U, C30A
DNA 1: CAATCTGAATTCCGGTCTCCC
DNA 2: TGGTGGCTACGACGGGATT
B5: AUAGACA (DNA:RNA)
RNA: B1 RNA with U25A, G27A, U28G, G29A, C31A
DNA 1: CAATCTGAATTCCGGTCTCCC
DNA 2: TGGTGGCTACGACGGGATT
B6: ACGGGAG (DNA:RNA)
RNA: B1 RNA with U25A, U26C, U28G, C30A, C31G
DNA 1: CAATCTGAATTCCGGTCTCCC
DNA 2: TGGTGGCTACGACGGGATT
B7: UCGUCAC (DNA:RNA)
RNA: B1 RNA with U26C, G29C, C30A
DNA 1: CAATCTGAATTCCGGTCTCCC
DNA 2: TGGTGGCTACGACGGGATT
B8: CAUGUUA (DNA:RNA)
RNA: GGGAGACCGGAAUUCAGAUUGUCCCAUGUUAUUAAAUCCCGUCGUAGCCACCA
DNA 1: CAATCTGAATTCCGGTCTCCC
DNA 2: TGGTGGCTACGACGGGATT
B9: UGAAUAA (DNA:RNA)
RNA: B8 RNA with C25U, A26G, U27A, G28A, U30A
DNA 1: CAATCTGAATTCCGGTCTCCC
DNA 2: TGGTGGCTACGACGGGATT
B10: CCAUCGU (DNA:RNA)
RNA: B8 RNA with A26C, U27A, G28U, U29C, U30G, A31U
DNA 1: CAATCTGAATTCCGGTCTCCC
DNA 2: TGGTGGCTACGACGGGATT
B11: UUACGCC (DNA:RNA)
RNA: B1 RNA with G27A, U28C
DNA 1: CAATCTGAATTCCGGTCTCCC
DNA 2: TGGTGGCTACGACGGGATT
B12: GUUUAGA (DNA:RNA)
RNA: B8 RNA with C25G, A26U, G28U, U29A, U30G
DNA 1: CAATCTGAATTCCGGTCTCCC
DNA 2: TGGTGGCTACGACGGGATT
B13: AUGGGCU (DNA:RNA)
RNA: B1 RNA with U25A, U28G, C31U
DNA 1: CAATCTGAATTCCGGTCTCCC
DNA 2: TGGTGGCTACGACGGGATT
B14: CAAUAUU (DNA:RNA)
RNA: B8 RNA with U27A, G28U, U29A, A31U
DNA 1: CAATCTGAATTCCGGTCTCCC
DNA 2: TGGTGGCTACGACGGGATT
B15: UGGUCCA (DNA:RNA)
RNA: B1 RNA with U26G, G29C, C31A
DNA 1: CAATCTGAATTCCGGTCTCCC
DNA 2: TGGTGGCTACGACGGGATT
B16: AGUCUAG (DNA:RNA)
RNA: B8 RNA with C25A, A26G, G28C, U30A, A31G
DNA 1: CAATCTGAATTCCGGTCTCCC
DNA 2: TGGTGGCTACGACGGGATT
B17: AUCGCUA (DNA:RNA)
RNA: B8 RNA with C25A, A26U, U27C, U29C
DNA 1: CAATCTGAATTCCGGTCTCCC
DNA 2: TGGTGGCTACGACGGGATT
B18: UAUAAAC (DNA:RNA)
RNA: B8 RNA with C25U, G28A, U29A, U30A, A31C
DNA 1: CAATCTGAATTCCGGTCTCCC
DNA 2: TGGTGGCTACGACGGGATT
B19: UGGGACU (DNA:RNA)
RNA: B1 RNA with U26G, U28G, G29A, C31U
DNA 1: CAATCTGAATTCCGGTCTCCC
DNA 2: TGGTGGCTACGACGGGATT
B20: GAUGUAG (DNA:RNA)
RNA: B8 RNA with C25G, U30A, A31G
DNA 1: CAATCTGAATTCCGGTCTCCC
DNA 2: TGGTGGCTACGACGGGATT
B21: CGGCGCG (DNA:RNA)
RNA: B1 RNA with U25C, U26G, U28C, C31G
DNA 1: CAATCTGAATTCCGGTCTCCC
DNA 2: TGGTGGCTACGACGGGATT
B22: UAGUAAC (DNA:RNA)
RNA: B1 RNA with U26A, G29A, C30A
DNA 1: CAATCTGAATTCCGGTCTCCC
DNA 2: TGGTGGCTACGACGGGATT
B23: CCUGUCC (DNA:RNA)
RNA: B8 RNA with A26C, U30C, A31C
DNA 1: CAATCTGAATTCCGGTCTCCC
DNA 2: TGGTGGCTACGACGGGATT
B24: GUGCGCU (DNA:RNA)
RNA: B1 RNA with U25G, U28C, C31U
DNA 1: CAATCTGAATTCCGGTCTCCC
DNA 2: TGGTGGCTACGACGGGATT
B25: ACCACGG (DNA:RNA)
RNA: GGGAGACCGGAAUUCAGAUUGUCCACCACGGUUAAAUCCCGUCGUAGCCACCA
DNA 1: CAATCTGAATTCCGGTCTCCC
DNA 2: TGGTGGCTACGACGGGATT
B26: AUACCCG (DNA:RNA)
RNA: B25 RNA with C26U, C27A, A28C, G30C
DNA 1: CAATCTGAATTCCGGTCTCCC
DNA 2: TGGTGGCTACGACGGGATT
B27: GUUAAUA (DNA:RNA)
RNA: B8 RNA with C25G, A26U, G28A, U29A
DNA 1: CAATCTGAATTCCGGTCTCCC
DNA 2: TGGTGGCTACGACGGGATT
B28: AAGACGA (DNA:RNA)
RNA: B25 RNA with C26A, C27G, G31A
DNA 1: CAATCTGAATTCCGGTCTCCC
DNA 2: TGGTGGCTACGACGGGATT
B29: AGCAGAU (DNA:RNA)
RNA: B25 RNA with C26G, C29G, G30A, G31U
DNA 1: CAATCTGAATTCCGGTCTCCC
DNA 2: TGGTGGCTACGACGGGATT
B30: AGACAGA (DNA:RNA)
RNA: B25 RNA with C26G, C27A, A28C, C29A, G31A
DNA 1: CAATCTGAATTCCGGTCTCCC
DNA 2: TGGTGGCTACGACGGGATT
B31: CUCAUGG (DNA:RNA)
RNA: B25 RNA with A25C, C26U, C29U
DNA 1: CAATCTGAATTCCGGTCTCCC
DNA 2: TGGTGGCTACGACGGGATT

What follows are binders tested against T1, RBFOX1 RRM (assay: EMSA; HiTS-Eq, 1 nM pool, 10 min; buffer printed only for the single-RNA assays: 10 mM Tris pH 7.5, 150 mM NaCl, 3.4 mM EDTA, 0.001% NP-40, 30 C). Conditions: tags: His6 N-terminal (pET28a); label: 5' 32P.
Outline: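 A pool of RNA with 7 randomized nucleotides, 5′-radiolabelled and with DNA-annealed flanks, was equilibrated at 1 nM for 10 min in 50 µL with purified RbFox RRM, wild type or mutant, across increasing protein concentrations. Free RNA was separated by 8% native PAGE, excised, reverse-transcribed, barcoded by PCR and sequenced. Relative association constants were obtained from read-count changes of each RNA species versus the control reaction and normalised to the cognate motif.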

Row | Binder | binding signal
1 | B1 | 0.0199 KA relative to UGCAUGU
2 | B2 | 0.00331 KA relative to UGCAUGU
3 | B3 | 0.0158 KA relative to UGCAUGU
4 | B4 | 0.00467 KA relative to UGCAUGU
5 | B5 | 0.00134 KA relative to UGCAUGU
6 | B6 | 0.011 KA relative to UGCAUGU
7 | B7 | 0.00454 KA relative to UGCAUGU
8 | B8 | 0.00544 KA relative to UGCAUGU
9 | B9 | 0.00876 KA relative to UGCAUGU
10 | B10 | 0.00683 KA relative to UGCAUGU
11 | B11 | 0.00657 KA relative to UGCAUGU
12 | B12 | 0.015 KA relative to UGCAUGU
13 | B13 | 0.0189 KA relative to UGCAUGU
14 | B14 | 0.000816 KA relative to UGCAUGU
15 | B15 | 0.00831 KA relative to UGCAUGU
16 | B16 | 0.00581 KA relative to UGCAUGU

Row | Binder | binding signal
17 | B17 | 0.00293 KA relative to UGCAUGU
18 | B18 | 0.00347 KA relative to UGCAUGU
19 | B19 | 0.0159 KA relative to UGCAUGU
20 | B20 | 0.0159 KA relative to UGCAUGU
21 | B21 | 0.0184 KA relative to UGCAUGU
22 | B22 | 0.0109 KA relative to UGCAUGU
23 | B23 | 0.0112 KA relative to UGCAUGU
24 | B24 | 0.0163 KA relative to UGCAUGU
25 | B25 | 0.0054 KA relative to UGCAUGU
26 | B26 | 0.000677 KA relative to UGCAUGU
27 | B27 | 0.00376 KA relative to UGCAUGU
28 | B28 | 0.00419 KA relative to UGCAUGU
29 | B29 | 0.00663 KA relative to UGCAUGU
30 | B30 | 0.00907 KA relative to UGCAUGU
31 | B31 | 0.00796 KA relative to UGCAUGU
